The record followed here is the supplement of paper PMC11417369.

This is one part of the list.

The assay relates to PfAP2-HC AP2 domain (GST-tagged). The assay can be described thus: gcPBM binding intensity (ln(normalized median fluorescence intensity)); higher = stronger DNA binding. The procedure, abridged: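 An Agilent 4 × 180k array carrying primer-extended double-stranded 36-bp intergenic genomic probes and negative controls received GST-tagged P. falciparum DNA-binding domains expressed in E. coli, about 25 μg on average, for 1 h. The binding buffer contained 1× PBS, 1% milk, 0.2 mg/ml BSA, 0.5% salmon testes DNA and 0.03% Triton X-100. Binding intensity is the top Masliner-normalised natural-log median intensity across replicate spots of either probe orientation, read after Alexa488 anti-GST antibody staining and a 488 nm scan.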
Turning to “AAAAAAAAAAAAAAAAGTACACAGTAGAATTAAATG [XGTACX_site1843]”, the “gcPBM binding intensity (ln)” value came out at 9.65.
For “TTTTTTTTTTAATTAACACACATAAATATATATATA [CACACA_site3275]”, the “gcPBM binding intensity (ln)” value came out at 9.49.
Then “GAACAATAAATAAAAAAAATAAAAATAAAAATAAAA [TGCATGCA_negctrl_site35]”, with 9.65.
As for “ATAAGTAAATTAGATACACACATGATATCATACATA [CACACA_site1623]”, the “gcPBM binding intensity (ln)” value was 9.91.
In the case of “TCAATAATAACAAATGAACACACATATATATGAGCA [CACACA_site8663]”, the “gcPBM binding intensity (ln)” value was found to be 9.8.
Then “AGAAAAAAATAATGTACACACACATAGATGTTTATA [CACACA_site4271]”, with 10.4; and “AATATATTTGTGTATGTGCGCAGTGTGTAATTTATT [GTGCAC_site9765]”, with 10.1.
To “CATCTCATATTTTGAAGTACTAAGAAAAGATATAAA [XGTACX_site6867]” belongs 9.22; to “ATAAATTTTTTTTTTTTTTTTTTTCTTTTTCTTTGT [CACACA_negctrl_site1231]”, 9.41; to “ACTAAAGTGTATCACTGTACAATTCTTCTCTTTTTT [XGTACX_site8705]”, 9.71.
Turning to “ACGTAATTAATTCATCAGATATAATTAATAATAATA [XGTACX_negctrl_site550]”, the “gcPBM binding intensity (ln)” value turned out to be 9.52.
On to “TATATAACTTTATTTTTCTTTACTTATTTTATTTTA [GTGCAC_negctrl_site66]”, for which the “gcPBM binding intensity (ln)” value was determined as 9.7.
To “CTAGCAAATACATACACACACACACGGATACCTATA [CACACA_site7609]” belongs 10.4; to “TTTTTTAAAATATATATAATGAATTTTTTTTTTTTT [CACACA_negctrl_site1577]”, 9; to “AAAGAAAAAAAAAAAAGTACATAAATATAAAAAGAA [XGTACX_site6753]”, 9.72.
As for “ATATATATATATATATGTACATATTATTAATAATAT [XGTACX_site6667]”, the “gcPBM binding intensity (ln)” value was determined as 9.76.
“TATTTATATTTATATACACACTATATAACTCAAACA [CACACA_site6611]”: the “gcPBM binding intensity (ln)” value came out at 9.67.
Consider “AATTGTTCGATATATGCACACAGTTTTGTTATTTTT [CACACA_site1615]”, for which the “gcPBM binding intensity (ln)” value was 10.1.
Then “ATACATATTAACAAGGTGCAAATGGATTTCATAAAA [GTGCAC_site9775]”, with 9.74; and TTTTTTTTTTTGTGAGTGCACGTATGAAGAGAAAAA, with 9.33.
As for “TTATGGAACCCCATTCGTACATAAATATTTTATATA [XGTACX_site7112]”, the “gcPBM binding intensity (ln)” value came to 9.56.
In the case of “GATATGATTACCTTATGGTGTTTTTGATGGATAGTT [CACACA_negctrl_site1504]”, the “gcPBM binding intensity (ln)” value worked out at 9.68.
“TTTTTTATTTTAATGTATTATTTTTATGTAATATAT [GTGCAC_negctrl_site391]”: the “gcPBM binding intensity (ln)” value amounted to 9.68.
To “TATATACAAATATGCTGTACAAAAAAAAAAAAAAAA [XGTACX_site4732]” belongs 9.24.
With “TATAATAATAATGATAGTACGTATGAGTTCAAAAAA [XGTACX_site608]”, the “gcPBM binding intensity (ln)” value worked out at 9.85.
For “CGGTATTTTTTAATTTGTACGCATATACAATAATTA [XGTACX_site8603]”, the “gcPBM binding intensity (ln)” value worked out at 9.54.
Then “TTTTATTATTTATATACACACTTGCTGAAATGTTAT [CACACA_site5919]”, with 9.86.
Then “TTTATGCACGCGTGCACACACATATGAAAAAAGGTA [CACACA_site3315]”, with 10.1.
With “TATGTTTAAATATATTGTACGCACGTATGTTTTTAA [XGTACX_site1108]”, the “gcPBM binding intensity (ln)” value was determined as 9.65.
Then “ACAAATAAATATATATGTACATATATTTTTTTATTT [XGTACX_site2989]”, with 9.68; and “TTTTATTTATATTATACACACAAGGAAAAAAAAAAA [CACACA_site7690]”, with 9.63; and “AATACCTTTTAATAATGTACAAACAAAAATTAGAGA [XGTACX_site6850]”, with 9.66.
Regarding “TATATATTAAAAATAGTGCAAAATAATATATATATA [GTGCAC_site9716]”, the “gcPBM binding intensity (ln)” value was found to be 9.82.
Then “AAGGGGAGAAAAATAAACGAAATATATACATACATA [XGTACX_negctrl_site88]”, with 9.64; and “ATATATATATATATATGTACATATTCATCTTATTCT [XGTACX_site1537]”, with 10.4; and “ATGTCTATATATTAAGGTACACATATATGCTATTCA [XGTACX_site6008]”, with 9.77.
On to “TTTTAGTTAATTCATGCATGTAAAGTTTTATTTATA [TGCATGCA_site252]”, for which the “gcPBM binding intensity (ln)” value came out at 9.66.
As to “AAAAAAAAAAAAAAAGTACACACTTTTGCGTACATG [CACACA_site3097]”, the “gcPBM binding intensity (ln)” value was found to be 9.69.
Consider “ATATTAATTTTTATTACACACTCTCAATTTTTATTT [CACACA_site58]”, for which the “gcPBM binding intensity (ln)” value was 9.78.
In the case of “AAAATATACATAAACACACACAAAACGTTTAAGAAA [CACACA_site1071]”, the “gcPBM binding intensity (ln)” value was 10.3.
In the case of “GTTTAACTGTTTTATACACACAATGTATCCAATAAA [CACACA_site5612]”, the “gcPBM binding intensity (ln)” value is 9.85.
For the sequence “TTATTTTATTTTGAAGCATGCTTTTTGCTGTGATAA [TGCATGCA_site278]”, the “gcPBM binding intensity (ln)” value came out at 9.29.
Consider “AAATAATATTTATACACACACACATATTTATATACA [CACACA_site6403]”, for which the “gcPBM binding intensity (ln)” value came out at 10.3.
For “TTATGCGTTTGCAAAAGTACATATCTATTATTTTTA [XGTACX_site7609]”, the “gcPBM binding intensity (ln)” value came to 9.5.
